Laboratory results taken from publication PMC9837865 (Pharmacology, biochemistry, and behavior, 2022).

Test system: male and female C57BL/6 mice
Assay: Δ9-THC drug discrimination, substitution tests
Conditions: for dose with significant decrease in response rate: compared to vehicle

Row | SMILES | less potent than the 3 compounds in the higher potency group (males, vs 5F-MDMB-PICA, 5F-EDMB-PINACA, MDMB-4en-PINACA) | more potent than the 4 compounds in the second group (males, vs MMB-FUBICA, FUB-AKB48, MMB-4en-PICA, FUB-144) | dose that significantly suppressed overall responding (female mice) [mg/kg] | level of substitution (responding on the Δ9-THC-associated aperture) (female mice, up to 100 mg/kg) [%] | dose with significant decrease in response rate (male mice) [mg/kg] | dose that fully substituted for Δ9-THC (male mice, i.p.) [mg/kg] | more potent in females than males (Δ9-THC discrimination ED50) (females vs males) [fold]
1 | COC(=O)[C@@H](NC(=O)c1cn(CCCCCF)c2ccccc12)C(C)C [5F-MMB-PICA, methyl (2S)-2-[[1-(5-fluoropentyl)indole-3-carbonyl]amino]-3-methylbutanoate] | 13- to 19 fold | 2.9- to 9.7 fold | – | – | – | – | –
2 | CCCCn1nc(C(=O)N[C@@H](Cc2ccccc2)C(N)=O)c2ccccc21 [APP-BINACA, N-[(2S)-1-amino-1-oxo-3-phenylpropan-2-yl]-1-butylindazole-3-carboxamide] | – | – | 100 | < 80 | 100 | 100 | –
3 | CCCCCc1cc(O)c2c(c1)OC(C)(C)[C@@H]1CCC(C)=C[C@@H]21 [Δ^9-THC, Δ^9-tetrahydrocannabinol, reference compound] | – | – | – | – | 10 | – | 1.5
